This is an account of results in paper PMC7819943, “Rice protein-binding microarrays: a tool to detect cis-acting elements near promoter regions in rice”.

Some of the results follow.

This assay addresses T1, OsWOX13 (Oryza sativa, UniProt Q5QMM3 1-267).
T1 sequence: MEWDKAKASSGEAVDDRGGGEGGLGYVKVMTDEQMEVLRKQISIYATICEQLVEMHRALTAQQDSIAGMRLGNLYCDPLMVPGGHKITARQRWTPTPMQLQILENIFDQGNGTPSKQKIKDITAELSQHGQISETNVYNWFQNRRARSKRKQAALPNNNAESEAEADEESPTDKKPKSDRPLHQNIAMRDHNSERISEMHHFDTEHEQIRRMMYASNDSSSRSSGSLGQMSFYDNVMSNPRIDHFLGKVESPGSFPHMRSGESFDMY
Put plainly: protein-binding microarray (RPBM); PBS, 2% BSA, 51.3 ng/ul salmon testes DNA, 50 uM zinc acetate, 200 nM TF, 25 C, 1 h; high values mean tight binding. To be noted: protein: recombinant; tags: N-terminal polyhistidine and DsRed monomer fusion (pET32a); label: CyDye5-dUTP incorporated in the synthesized complementary strand; 3' TTTTT single-stranded linker to array surface; dsDNA, one strand shown. The essentials: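 The binding signal for each feature is its fluorescence intensity in arbitrary units. An Axon 4000B scanner was used to read a custom Agilent array that had been made double-stranded with Cy5-dUTP primer extension, blocked with 2% BSA, incubated at 25 °C for 1 h with 200 nM protein in PBS, 2% BSA, salmon testes DNA and 50 µM zinc acetate, and washed. The protein was an N-terminal polyhistidine–DsRed transcription factor fusion from E. coli BL21-CodonPlus, purified on Ni–NTA.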
Consider “CGCCAAATTTAAGTCTTCCTTTACCTACCTTCTCCTTGCTCGGAGTCACCTAGTGCAG”, for which the binding signal is 5780 fluorescence intensity (a.u.).

Consider “CCACATGATTAATTAAGTTTTAATTATTATAAATTTAAAACGGAGTCACCTAGTGCAG”, for which the binding signal was 28600 fluorescence intensity (a.u.).

As to “TCAGATTACTGTGATAGAACCAATTCAATTCCGTTTATCTCGGAGTCACCTAGTGCAG”, the binding signal is 8910 fluorescence intensity (a.u.).

On to “TGGGATCCAATCATCTTTCCATTTGGTGGGCCAAAGTAGCCGGAGTCACCTAGTGCAG”, for which the binding signal is 9950 fluorescence intensity (a.u.).

On to “CTGTGAAATTAAAGGTCCAATTAGGCCCAACAGTGCAGCACGGAGTCACCTAGTGCAG”, for which the binding signal was 7750 fluorescence intensity (a.u.).

With “CCTGCTTAATTATTGCCTAGGATGCTCTGTCATCCTAATTCGGAGTCACCTAGTGCAG”, the binding signal is 8140 fluorescence intensity (a.u.).

On to “TACATAAGTGACGCATGATTTTCTAGAACAGTTTCTATAACGGAGTCACCTAGTGCAG”, for which the binding signal was 3180 fluorescence intensity (a.u.).

As to “TGGTTAATATGATTATTAGTCAAAAGTTATCGAGTTTAATCGGAGTCACCTAGTGCAG”, the binding signal is 6570 fluorescence intensity (a.u.).

In the case of “CTGTGTAATTTGGACTGGGTCTGGAGGGCAAGATTGGAAACGGAGTCACCTAGTGCAG”, the binding signal was 5690 fluorescence intensity (a.u.).

For “CACGCTTGATTAATCATTCTGTAAGGATTATATATACCCCCGGAGTCACCTAGTGCAG”, the binding signal is 39400 fluorescence intensity (a.u.).

Regarding “GCTACTTGCATCAACTAATTGACACTCTGCAGTATCCCGTCGGAGTCACCTAGTGCAG”, the binding signal is 11600 fluorescence intensity (a.u.).

“AGACCAAATGATTTGTTTCATGGTTTTGTGATATTATGGACGGAGTCACCTAGTGCAG”: the binding signal was 15200 fluorescence intensity (a.u.).

On to “TTGTAATTAACTAGGCTCAAGATAGATAGACGTCGTCTCTCGGAGTCACCTAGTGCAG”, for which the binding signal is 21400 fluorescence intensity (a.u.).

For “ATTATAATTTATTTTGTTATGAGTTGTTTTATCACTTATACGGAGTCACCTAGTGCAG”, the binding signal was 7290 fluorescence intensity (a.u.).

On to “GGCGAGAGCTTGATTGAAAGAATTCAGAGGTAGCAGGGACCGGAGTCACCTAGTGCAG”, for which the binding signal is 37500 fluorescence intensity (a.u.).

Consider “TAGAGGGAGTAATTAATTATGCGCTTATCAGTTGGGAAATCGGAGTCACCTAGTGCAG”, for which the binding signal is 7530 fluorescence intensity (a.u.).

With “TATTGACATATTTAGATATTTGGTAATTACTATAATATAACGGAGTCACCTAGTGCAG”, the binding signal is 11300 fluorescence intensity (a.u.).

Turning to “GGAGATTGACTAATTGGCGGACCGGTGGGACGGTGATTTTCGGAGTCACCTAGTGCAG”, the binding signal was 44900 fluorescence intensity (a.u.).

With “ATGTGCTAATGATGGATTAATTACGCTTAATAAATTCGTCCGGAGTCACCTAGTGCAG”, the binding signal was 28000 fluorescence intensity (a.u.).

As to “GTTGTTTACCCATATACCCAGTGGGTATGGGTAAGATTCGCGGAGTCACCTAGTGCAG”, the binding signal was 17800 fluorescence intensity (a.u.).

Take “GATCACTGTAAACTTGAGGTTAATTAGTTCTGCCCTGTGGCGGAGTCACCTAGTGCAG”: the binding signal is 5310 fluorescence intensity (a.u.).

Consider “GGATCGCCCATGATGTAATTAAATCACCTGATACTGATAGCGGAGTCACCTAGTGCAG”, for which the binding signal was 4200 fluorescence intensity (a.u.).

For “TCAACGGTGGAGCATGATTGGTTGATCAAATCAAAACACACGGAGTCACCTAGTGCAG”, the binding signal was 12700 fluorescence intensity (a.u.).

Regarding “CGAAATTGCTCGTCTGCGGTAGCAATAGCTATGGCAGCGGCGGAGTCACCTAGTGCAG”, the binding signal is 10800 fluorescence intensity (a.u.).

As for “AATAAATAATAATTAATAAGACGAATGATCAAATGCTATACGGAGTCACCTAGTGCAG”, the binding signal was 12000 fluorescence intensity (a.u.).

As for “AGGTGTACATGATTGTTTGCTTCCTTGCTGCAGCTCGGCGCGGAGTCACCTAGTGCAG”, the binding signal is 14100 fluorescence intensity (a.u.).

As for “GATTAATTAACCTAATACTGCAAGCCACATGTGTAAGAAACGGAGTCACCTAGTGCAG”, the binding signal is 18300 fluorescence intensity (a.u.).

“CGAGTTCCATTGATTGCGAGATAGCTCTGTCTGCCATGCACGGAGTCACCTAGTGCAG”: the binding signal is 10100 fluorescence intensity (a.u.).

Regarding “CAAGATTTTAATAGTAGCGCAATCAATATAAATGTTGATGCGGAGTCACCTAGTGCAG”, the binding signal is 6600 fluorescence intensity (a.u.).

On to “GAAGTTGATTATGAGCTCTTGGATCTTTTGGCAGGTGCAACGGAGTCACCTAGTGCAG”, for which the binding signal is 19400 fluorescence intensity (a.u.).

For the sequence “TTTTGGGAATTGATTTGATCACAACAAATAGCCTTCGTCTCGGAGTCACCTAGTGCAG”, the binding signal is 32300 fluorescence intensity (a.u.).

On to “AGTTTGTAATAATTAAAACTTAATTACTCATACACTAATACGGAGTCACCTAGTGCAG”, for which the binding signal is 16400 fluorescence intensity (a.u.).

Regarding “TTTCAAGGATCATTTGATTAATTACCAAACGTGCCTGATTCGGAGTCACCTAGTGCAG”, the binding signal is 7380 fluorescence intensity (a.u.).

As to “GGATTGGACTGACAGATTCGATTCGTTCGTTCGAAGATGCCGGAGTCACCTAGTGCAG”, the binding signal is 6320 fluorescence intensity (a.u.).

For the sequence “CCAATCCACAACATAACCATCAATCATTCATTGACGCAAGCGGAGTCACCTAGTGCAG”, the binding signal is 4680 fluorescence intensity (a.u.).

With “CGAAATGACTATCCTGCCCTTCATTTCTTCCCGATCTGTCCGGAGTCACCTAGTGCAG”, the binding signal is 3210 fluorescence intensity (a.u.).

In the case of “AGACAAATTTAGCGTATTAATAGTAACATATTGTTTACAGCGGAGTCACCTAGTGCAG”, the binding signal is 9250 fluorescence intensity (a.u.).

In the case of “TAAATGGTCTAATTATAATCTTGTTAAGTACTTTGAGTGTCGGAGTCACCTAGTGCAG”, the binding signal is 10000 fluorescence intensity (a.u.).

Consider “TCTCTATCAATATTATCTATTCAATCATGCAGTTAGAAACCGGAGTCACCTAGTGCAG”, for which the binding signal was 5150 fluorescence intensity (a.u.).

For “ACCAGCTTTGATTAGTTAAGGGACGCCGGATATCTGGTTTCGGAGTCACCTAGTGCAG”, the binding signal is 19200 fluorescence intensity (a.u.).

Consider “TATCTTTAATTAAAATCCCCGTTACAAGCATTATATGCTGCGGAGTCACCTAGTGCAG”, for which the binding signal was 12900 fluorescence intensity (a.u.).

In the case of “TAGCTAATACTTAATTAATCACGCGCTAATAGATCGGAACCGGAGTCACCTAGTGCAG”, the binding signal is 17700 fluorescence intensity (a.u.).
